# Patent publication US20260131015A1, “NEODEGRADER CONJUGATES” (priority 2022, published 2026)
# B1: Conjugate (VIII) (conjugate)
# heavy: QVQLVESGGGVVQPGRSLRLSCAASGFTFSSFGMHWVRQAPGKGLEWVAYISSGSFTIYYADSVKGRFTISRDNSKNTLYLQMNSLRAEDTAVYYCARMRKGYAMDYWGQGTLVTVSSASTKGPSVFPLAPSSKSTSGGTAALGCLVKDYFPEPVTVSWNSGALTSGVHTFPAVLQSSGLYSLSSVVTVPSSSLGTQTYICNVNHKPSNTKVDKKV[letters of human IgG1 Fc with L234A L235A N297A (EU numbers) not shown]
# light: DVVMTQSPLSLPVTLGQPASISCRSSQIIIHSDGNTYLEWFQQRPGQSPRRLIYKVSNRFSGVPDRFSGSGSGTDFTLKISRVEAEDVGVYYCFQGSHVPHTFGQGTKVEIKRTVAAPSVFIFPPSDEQLKSGTASVVCLLNNFYPREAKVQWKVDNALQSGNSQESVTEQDSKDSTYSLSSTLTLSKADYEKHKVYACEVTHQGLSSPVTKSFNRGEC
# B2: Antibody CD56-B: anti-CD56 antibody, heavy chain SEQ ID NO: 12, light chain SEQ ID NO: 11 (antibody)
# heavy: B1 heavy
# light: B1 light
# modifications: Heavy chain of CD56-B; Light chain of CD56-A and CD56-B
# B3: Conjugate (VI): Compound (III) conjugated to anti-CD56 antibody CD56-A, DAR 8 (conjugate)
# heavy: QVQLVESGGGVVQPGRSLRLSCAASGFTFSSFGMHWVRQAPGKGLEWVAYISSGSFTIYYADSVKGRFTISRDNSKNTLYLQMNSLRAEDTAVYYCARMRKGYAMDYWGQGTLVTVSS[letters of human IgG1 constant region not shown]
# light: B1 light
# Assays:
# [1] = tested on: human neuroblastoma cell lines (KPNRTBM1, NB1, CHP134, and IMR32); assay: In Vitro Cytotoxicity Assay IV, summary over neuroblastoma lines; format: cell-based; settings: KPNRTBM1, NB1, CHP134, IMR32, 5 days
# Method: (§1) Then cell viability was detected with the Cell Counting kit-8 (Dojindo) or CellTiter-Glo® reagent (Promega). The values were normalized to the untreated control for each cell line, and the IC50s were calculated using Prism software.
# [2] = tested on: 3 sarcoma cell lines (Aska-SS, SJCRH30, and RH41); assay: In Vitro Cytotoxicity Assay IV, summary over sarcoma lines; format: cell-based; settings: SJCRH30, RH41, 5 days
# Method: as §1
# NCI-H1048 SCLC cell line = assay: In Vitro Cytotoxicity Assay II (WST-8 cell viability); format: cell-based, human; settings: NCI-H1048, 120 hours, WST-8, Table 4
# Method: (§2) Cell lines were harvested and plated into 96-well plates. […] The cell viability was determined by colorimetric WST-8 assay (Dojindo Molecular Technologies, Inc.). The OD450 value was read using the SpectraMax M5 plate reader. The values were normalized for each cell line, and IC50s were calculated using the Prism software.
# NCI-H526 SCLC cell line = assay: as above; format: cell-based, human; settings: NCI-H526, 120 hours, WST-8, Table 4
# Method: as §2
# [3] = tested on: IMR32 human neuroblastoma (NB) cell line; assay: In Vitro Cytotoxicity Assay I (WST-8 cell viability); format: cell-based; settings: IMR32, 120 hours, WST-8, Table 3
# Method: (§3) The cell viability was determined by colorimetric WST-8 assay (Dojindo Molecular Technologies, Inc.). The OD450 value was read using the SpectraMax M5 plate reader. The values were normalized for each cell line, and IC50 values were calculated using the Prism software.
# [4] = tested on: NCI-H526 human SCLC cell line; assay: as above; format: cell-based; settings: NCI-H526, 120 hours, WST-8, Table 3
# Method: as §3
# [5] = tested on: IMR32 human neuroblastoma (NB) cell line; assay: In Vitro Cytotoxicity Assay III (WST-8 cell viability); format: cell-based; settings: IMR32, 120 hours, WST-8, Table 5
# Method: as §2, with “IC50 values” for “IC50s”
# [6] = tested on: NCI-H526 human SCLC cell line; assay: as above; format: cell-based; settings: NCI-H526, 120 hours, WST-8, Table 5
# Method: as §2, with “IC50 values” for “IC50s”
# NCI-H146 SCLC cell line = assay: In Vitro Cytotoxicity Assay II (WST-8 cell viability); format: cell-based; settings: NCI-H146, 120 hours, WST-8, Table 4
# Method: as §2
# NCI-H82 SCLC cell line = assay: as above; format: cell-based; settings: NCI-H82, 120 hours, WST-8, Table 4
# Method: as §2
# [7] = tested on: IMR32 human neuroblastoma cancer tumor cells; assay: In Vivo Activity Study III, subcutaneous xenograft
# [8] = tested on: NCI-H660 human prostate cancer tumor cells; assay: In Vivo Activity Study I, subcutaneous xenograft; set-up: species or system male BALB/c nude mice; settings: single dose 10 mg/kg IV
# [9] = tested on: SJCRH30 sarcoma cell line; assay: In Vitro Cytotoxicity Assay IV (Cell Counting kit-8 or CellTiter-Glo); format: cell-based; settings: SJCRH30, 5 days, Table 6
# Method: as §1
# [10] = tested on: NB1 human neuroblastoma cell line; assay: as above; format: cell-based; settings: NB1, 5 days, Table 6
# Method: as §1
# RH41 sarcoma cell line = assay: as above; format: cell-based; settings: RH41, 5 days, Table 6
# Method: as §1
# [11] = tested on: CHP134 human neuroblastoma cell line; assay: as above; format: cell-based; settings: CHP134, 5 days, Table 6
# Method: as §1
# [12] = tested on: Aska-SS sarcoma cell line; assay: as above; format: cell-based; settings: 5 days, Table 6
# Method: as §1
# [13] = tested on: IMR32 human neuroblastoma cell line; assay: as above; format: cell-based; settings: IMR32, 5 days, Table 6
# Method: as §1
# [14] = tested on: human NCIH660 neuroendocrine prostate cancer (NEPC) cell line; assay: as above; format: cell-based; settings: NCIH660, 5 days
# Method: as §1
# [15] = tested on: NCI-H1048 human lung cancer cells; assay: In Vivo Activity Study II, subcutaneous xenograft; set-up: species or system female BALB/c nude mice; settings: single dose 10 mg/kg IV
molecule,measurement,setting,value
B1,IC50 values range over human neuroblastoma cell lines,[1],1.23×10^−10 to 2.35×10^−13 M
same,IC50 values range over 3 sarcoma cell lines,[2],8.09 to 2.02×10^−11 M
same,IC50,NCI-H1048 SCLC cell line,0.00118 nM
same,IC50,NCI-H526 SCLC cell line,0.0277 nM
same,IC50,[3],0.00242 nM
same,IC50,[4],0.00458 nM
same,IC50,[5],0.00228 nM
same,IC50,[6],0.00614 nM
same,IC50,NCI-H146 SCLC cell line,0.0174 nM
same,IC50,NCI-H82 SCLC cell line,0.0723 nM
same,gross clinical abnormalities,"[7]; single IV dose, 3 mg/kg (Conjugate (VIII)) or 6.6 mg/kg (Conjugate (IX)), study period",No other gross clinical abnormalities were observed
same,mean tumor volume,"[7]; single dose 3 mg/kg IV, day 28 post dosing",0 mm^3
same,TGI,"[7]; single dose 3 mg/kg IV, day 28 post dosing, P<0.001 vs. control",100%
same,"antitumor activity against NCI-H660 xenograft (comparison, FIG. 5A)",[8],slightly superior to Compound (IV)—antibody CD56-B DAR8 conjugate
same,gross clinical abnormalities,[8]; study period,No other gross clinical abnormalities were observed
same,IC50,[9],0.0809 nM
same,IC50,[10],0.00249 nM
same,IC50,RH41 sarcoma cell line,0.0202 nM
same,IC50,[11],0.0149 nM
same,IC50,[12],0.0799 nM
same,IC50,[13],0.123 nM
same,IC50,"[14]; rounded value, read-out: IC50 in NCIH660 NEPC cell line",3e-10 M
same,IC50,"[14]; NEPC, Table 6, read-out: In Vitro Cytotoxicity IC50 Values (M) NCIH660",3.22e-10 M
B2,IC50,[3],> 20 nM
same,IC50,[4],> 20 nM
B3,IC50,NCI-H1048 SCLC cell line,0.00542 nM
same,IC50,NCI-H526 SCLC cell line,0.0548 nM
same,mean tumor size,[15]; day 36 post tumor inoculation,73 mm^3
same,TGI,"[15]; day 36 post tumor inoculation, P<0.001 vs. control",97.5%
same,gross clinical abnormalities,[15]; study period,No other gross clinical abnormalities were observed
same,IC50,NCI-H146 SCLC cell line,0.0321 nM
same,IC50,NCI-H82 SCLC cell line,0.115 nM

# Like-named read-outs stand apart in the source and are kept apart here.
